Measured values reported in PubChem BioAssay (NCI).
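Each compound was tested at five concentrations against cells in 96-well plates for 48 hours. Abbreviation: GI50, concentration required for 50% inhibition of growth. Definition used: TGI = concentration required for complete inhibition of growth.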

test system: NCI-H322M lung; assay: NCI tumour cell line growth inhibition, 48 h

SMILES	TGI [µM]	GI50 [µM]
Nc1cccc(S(=O)(=O)Nc2nnc(S(N)(=O)=O)s2)c1	> 100	–
O=C1CC(C(CC(=O)c2ccccc2)c2ccccc2)C(=O)c2ccccc2N1 (stereo unspecified)	> 100	–
C=C1C(=O)O[C@H]2[C@H]1CC/C(COC(=O)NCc1ccc(OC)cc1)=C\CC[C@@]1(C)O[C@@H]21	22.7	10.7
CC(C)(O)/C=C/C(=O)[C@](C)(O)[C@H]1[C@H](O)C[C@@]2(C)[C@@H]3CC=C4[C@@H](C[C@H](O)C(=O)C4(C)C)[C@]3(C)C(=O)C[C@]12C	26.6	–
CC(=O)NNc1nc(C)c(C(=O)NNC(=O)C(=O)Nc2cccc(C(C)=O)c2)s1	38	–
O=C1CC(C(OCc2ccccc2)C(OCc2ccccc2)C(COCc2ccccc2)OCc2ccccc2)CC(=O)N1 (stereo unspecified)	> 100	–
C=C1CC2CC[C@@]34CC5O[C@@H]6C(O[C@H]7CC[C@H](CC(=O)OC8C(C)C9OC%10C[C@]%11(C[C@@H]%12O[C@]%13(CC(C)[C@@H]%14O[C@H](C(O)CC(O)CO)C[C@@H]%14O%13)CC(C)[C@@H]%12O%11)OC%10CC9O[C@H]8C[C@H]8OC(CC[C@@H]1O2)C[C@@H](C)C8=C)OC7[C@@H]6O3)[C@H]5O4 (stereo partly specified)	1.49	–
CCN(CC)CCCNC(=O)c1cc2cc(NC(=O)c3cc4cc([N+](=O)[O-])ccc4[nH]3)ccc2[nH]1	> 100	–
O=[N+]([O-])c1cccc(-c2nc(-c3ccccc3)c(-c3ccccc3)[nH]2)c1	> 100	–
CCOC(=O)c1c(C)nc2c(c1-c1cn(-c3ccccc3)nc1-c1ccccc1)C(=O)c1ccccc1-2	> 100	–
CCCCCCCCOC(=O)c1c(C)[nH]c(/C=C2\N=C(c3ccc[nH]3)C=C2OC)c1C	14	0.221
NCCCCC1NC(=O)C(CC(=O)O)NC(=O)CNC(=O)C(CCCN=C(N)N)NC(=O)C(N)CSSCC(C(=O)O)NC(=O)C(CC(=O)O)NC(=O)C2CCCN2C(=O)CNC1=O (stereo unspecified)	> 100	> 100
CC(=O)NC(CCCCN)C(=O)NCc1ccccc1 (stereo unspecified)	> 100	–
COc1ccc2nc3c(c(NCCCN(C)C)c2c1)CCCC3	46.8	–
[O-][N+]1(CC[N+]2([O-])CCCCC2)CCCCC1	> 100	–
Nc1ccc(Nc2cc(=O)[nH]c(=O)[nH]2)cc1	> 100	–
CN1N=C(c2ccncc2)OC1c1cccc(C(F)(F)F)c1 (stereo unspecified)	> 100	–

SMILES	TGI [µM]	GI50 [µM]
CCSCN(C)c1nc(N(C)C)nc(N(C)C)n1	> 100	–
CCCCCCCC(=O)OCCCC1[C@]2(C)CC[C@@]3(C)C([C@H](C)CCC=C(C)C)CC[C@]3(C)C2CC[C@]12OC2(C)C (stereo partly specified)	> 100	> 100
Cc1ccc(Sc2ccccc2[N+](=O)[O-])cc1	> 100	–
CC(=O)NC1=C(NCCCl)C(=O)c2ccccc2C1=O	> 100	–
COC(=O)C(=O)C(C(=O)C(=O)Nc1cccc([N+](=O)[O-])c1)c1nc2ccc(Cl)cc2[nH]c1=O (stereo unspecified)	> 100	–
Cc1ccc(NC2=NCCO2)c2c1CCC2	> 100	–
CN(C)CCNC(=O)c1cccc2cc3cc(O)ccc3nc12	4.98	–
N=C(N)SCCC(=O)CCSC(=N)N	> 100	–
CCN1CCN(c2cc(C)nc(N(CCCNc3ccnc4cc(Cl)ccc34)Cc3ccc4c(c3)OCO4)n2)CC1	37.9	3.57
CCOC(=O)NNC(=O)NCc1ccccc1CNC(=O)NNC(=O)OCC	> 100	–
CN(C)c1ccc(/C=C2\N=C(c3ccccc3)N(c3cc(C(F)(F)F)ccc3Cl)C2=O)cc1	> 100	> 100
Cc1cc(NC(=O)C2C3C=CC(O3)C2C(=O)O)no1 (stereo unspecified)	> 100	–
Cn1c([C@H](C#N)C(=O)c2cc(O)ccc2[N+](=O)[O-])nc2ccccc21	> 100	–
COC(=O)CCc1c(Cc2ccc[nH]2)[nH]c(C(=O)OCc2ccccc2)c1C	> 100	–
Cc1ccnc2nc(N)ccc12	> 100	–
COC(=O)CCC12CCC(=O)C1[C@@H](C(=O)OC)C[C@H]2C(=O)OC (stereo partly specified)	> 100	–
Cc1ncc(C(=O)Nc2ccc(CN3CCN(C)CC3)c(C(F)(F)F)c2)cc1C#Cc1ccc(N)nc1	4.04	0.619
